# Measurements: publication PMC6919601, “Identification of Plasmodium dipeptidyl aminopeptidase allosteric inhibitors by high throughput screening” (PLoS ONE, 2019)
# The whole screen tested about 110,000 compounds, of which about 230 (0.21%) showed an effect of 50% or more. This is one part of the list.
# Molecular target: DPAP1 (Plasmodium falciparum, UniProt Q8IIJ9)
# Assay: primary screen, percent inhibition; read by cleavage of a fluorogenic dipeptide substrate; higher = more effect of the substance
# Set-up: species or system P. falciparum D10 trophozoite lysates; single well
# 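Also: 30 min substrate incubation versus DMSO and 10 µM JCP410 controls.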
# Chain of DPAP1 (Q8IIJ9 whole entry, looked up): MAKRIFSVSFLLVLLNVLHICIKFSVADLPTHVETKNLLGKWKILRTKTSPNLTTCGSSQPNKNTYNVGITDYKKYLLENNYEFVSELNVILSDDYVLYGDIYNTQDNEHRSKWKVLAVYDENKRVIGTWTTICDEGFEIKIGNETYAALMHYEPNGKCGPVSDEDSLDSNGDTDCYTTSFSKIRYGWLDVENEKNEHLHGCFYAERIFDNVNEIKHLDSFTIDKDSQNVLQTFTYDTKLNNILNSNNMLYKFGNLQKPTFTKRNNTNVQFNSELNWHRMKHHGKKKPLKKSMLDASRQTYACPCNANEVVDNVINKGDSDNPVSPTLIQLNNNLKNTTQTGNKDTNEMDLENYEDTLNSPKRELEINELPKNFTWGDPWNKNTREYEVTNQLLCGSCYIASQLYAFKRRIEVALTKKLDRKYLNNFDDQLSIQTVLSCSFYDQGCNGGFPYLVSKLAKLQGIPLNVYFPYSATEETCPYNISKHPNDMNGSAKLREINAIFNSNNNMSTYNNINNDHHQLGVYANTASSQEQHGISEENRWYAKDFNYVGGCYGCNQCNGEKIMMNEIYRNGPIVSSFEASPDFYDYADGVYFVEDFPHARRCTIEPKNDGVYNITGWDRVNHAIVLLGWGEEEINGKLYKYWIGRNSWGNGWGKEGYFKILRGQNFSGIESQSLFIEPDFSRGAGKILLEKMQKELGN
row,SMILES,% Inhibition @ 10 uM [%]
1,CCOC(=O)c1c(CN(CC)CC)n(C)c2cc(Br)c(OC)cc12,-4.11
2,CC(c1ccccc1)N1C(=O)c2ccc(C(=O)Nc3cc(Cl)ccc3C(=O)O)cc2C1=O (stereo not drawn),4.05
3,c1ccc(C2C3=C(CCCC3)Nc3ncnn32)cc1 (stereo not drawn),4.09
4,CCCNC(=O)CCC(=O)n1ncc2ccccc21,-1.08
5,COc1cc(CN(C(=O)c2oc3ccc(C)cc3c2C)C2CCS(=O)(=O)C2)cc(OC)c1OC (stereo not drawn),-5.08
6,CCOc1cc(C2C3=C(O)CCCC3=NC(C)=C2C(=O)Nc2ccccc2C)ccc1O (stereo not drawn),-6.6
7,CC(Cc1ccc(F)cc1)N(CCO)Cc1ccccc1 (stereo not drawn),-3.72
8,O=C1NC(=O)/C(=C\c2ccc(N3CCCC3)c(F)c2)S1,-4.52
9,CCC(C)(NC(=O)c1ccc2c(c1)OCO2)C(=O)NC1CCCCC1 (stereo not drawn),5.85
10,N#CC1=C(N)N(c2nc[nH]n2)C2=C(C(=O)CC(c3ccccc3)C2)C1c1ccc(Cl)cc1 (stereo not drawn),3.99
11,CCOC(=O)c1ccc2c(c1)c1c(n2-c2ccccc2)CCCC1,-1.66
12,COCCCNc1nc2c(S(=O)(=O)c3ccc(C)c(C)c3)nnn2c2ccccc12,-3.08
13,Cc1cc(-c2ccc(S(=O)(=O)NCCc3ccc(Cl)cc3)cc2)on1,-2.19
14,COCCNC(=O)Cn1ncn2nc(-c3ccc(OC)cc3)cc2c1=O,0.623
15,COc1ccc2nc(C)cc(C(=O)O)c2c1,3.15
16,COc1ccc(-c2cc(C(=O)O)c3ccccc3n2)c(F)c1,2.94
17,CCc1ccccc1NC(=O)CSc1ccc(C)cc1,3.05
18,CCOc1cc(/C=C2\SC(=O)N(CC(=O)Nc3ccccc3)C2=O)c(Br)cc1O,-6.83
19,Oc1c2c(nc3nc(NCc4ccccc4F)nn13)CCC2,1
20,O=C1CC(=O)N(Cc2ccc(F)cc2)C(=O)N1,-4.01
21,Cn1cc(NC(=O)NC2CCCCC2)c2ccccc2c1=O,-4.23

row,SMILES,% Inhibition @ 10 uM [%]
1,C=CCN1C(=O)C(Cc2ccc(Br)cc2)S/C1=N\N=C\c1ccco1 (stereo not drawn),-0.053
2,O=C(CN1N=C(c2ccccc2)CCC1=O)NCc1ccccc1Cl,-6.75
3,CC(CCc1ccco1)NC(=O)Cn1ncc2c1-c1ccccc1OC2 (stereo not drawn),2.6
4,NC(=O)CSc1nc2ccccc2c(=O)n1-c1cccc2ccccc12,-4.06
5,O=P(O)(O)COc1ccccc1P(=O)(c1ccccc1)c1ccccc1,1.52
6,Cc1cc(C)n(C(=O)CN(C)S(=O)(=O)c2ccc([N+](=O)[O-])cc2)n1,-0.0217
7,O=C(CCc1ccc(S(=O)(=O)NCc2ccccc2)cc1)NC1CCCCCC1,1.94
8,O=C(Nc1ccc(Cl)c(Cl)c1)Nc1ccccc1Cl,-1.62
9,Clc1ccccc1N1CCN(Cc2cccc(Cl)c2Cl)CC1,-4.5
10,CN(C)C(=O)/C(=C\c1ccccc1)NC(=O)c1ccccc1,-1.06
11,O=C1OC(c2ccc(Cl)c(Cl)c2)=N/C1=C\c1coc2ccccc2c1=O,-7.56
12,Cc1cccc(NC(=O)CN(c2cc(C)ccc2C)S(C)(=O)=O)c1,-6.77
13,CN(C)CCCNc1c2c(c(C#N)c3nc4ccccc4n13)CCC2,-4.33
14,O=C1NC(=O)/C(=C\c2cc(Br)ccc2O)N1,4.74
15,O=C(c1ccc(CNc2c(N3CCCC3)c(=O)c2=O)cc1)N1CCN(c2ccccn2)CC1,-0.447
16,CCN(CC)C(=O)CSc1c2c(nc3ccc(Cl)cc13)CCCC2,-6.89
17,NC(=O)c1c(NC(=O)COc2ccc(Cl)cc2Cl)sc2c1CCCC2,-0.303
18,CC1CCN(c2nc3c(c(=O)n(Cc4ccccc4)c(=O)n3C)n2Cc2ccccc2)CC1,0.279
19,COc1ccc(S(=O)(=O)NC(C)(C)C)cc1-c1nnc2c3ccccc3c(C)nn12,0.628
20,O=C(O)c1ccc(NC(=O)C2CCCCC2)cc1,-4.02
21,Cc1ccc(CNC(=O)CCc2nnc3n(CCCOC(C)C)c(=O)c4ccccc4n23)cc1,-5.05

row,SMILES,% Inhibition @ 10 uM [%]
1,Cc1ccc(NCC(O)Cn2c3ccccc3c3ccccc32)cc1 (stereo not drawn),3.96
2,Cc1ccc2c(N)c(C(=O)c3ccc(Br)cc3)sc2n1,-5.61
3,CCC(C)NC(=O)C1CCN(S(=O)(=O)N2CCC3(CC2)OCCO3)CC1 (stereo not drawn),0.514
4,Cc1ccc(C(=O)N/C(=C\c2ccc(-c3ccc(Cl)cc3)o2)C(=O)NCCO)cc1,-0.0267
5,COc1ccccc1N1CCN(C(=O)CN(C)S(=O)(=O)c2ccc(F)cc2)CC1,-11.7
6,Cc1ccc(N2CC(C(=O)Nc3ccc(F)c(F)c3)CC2=O)cc1 (stereo not drawn),0.214
7,N#CCNC(=O)[C@H](CC1CCCCC1)NC(=O)c1ccc(-c2ccccn2)s1,-1.83
8,CC1(C)CC(=O)C2=C(C1)c1c(ccc3ccccc13)NC2c1ccc([N+](=O)[O-])cc1 (stereo not drawn),2.55
9,O=C(c1cccn1-c1nnc(N2CCCCC2)s1)N1CCC(Cc2ccccc2)CC1,-2.5
10,Cc1ccc(Sc2c(C(=O)NCc3ccccn3)[nH]c3ccccc23)cc1,-3.93
11,Cc1nn2c3ccccc3n(C)c2c1C(=O)C(Cl)(Cl)Cl,0.997
12,COc1ccc(-c2onc(C)c2C)cc1S(=O)(=O)N1CCCC(C)C1 (stereo not drawn),7.39
13,Cc1nn(C)c(N)c1-c1ccccc1,4.19
14,Clc1cccc(OCCN2CCCCC2)c1Cl,5.31
15,O=C(Cc1cccs1)Nc1ccccc1C(=O)O,6.12
16,Cc1ccc2nc(-c3cccc(NC(=O)c4ccccc4F)c3)oc2c1,-4.01
17,COc1ccccc1C1C(C(=O)c2ccccc2)=C(O)C(=O)N1c1nc(C)c(C)s1 (stereo not drawn),-5.51
18,COc1ccc(CCCC(=O)Nc2cccc3ccccc23)cc1,-3.67
19,Cc1ccc(CNC(=O)[C@H]2O[C@@H]3OC(C)(C)O[C@@H]3[C@H]3OC(C)(C)O[C@H]32)cc1,-3.52
20,C=CCc1ccccc1OCC(O)CN1CCN(C)CC1 (stereo not drawn),-1.07
21,CN(C)c1cccc2c(S(=O)(=O)NCC(=O)N[C@@H](Cc3ccc(F)cc3)C(=O)N[C@H](/C=C/S(=O)(=O)c3ccc(F)cc3)CCS(C)(=O)=O)cccc12,-4.72
